# Test results reported in the supplement of paper PMC8728848.
# This is one part of the list.
# B1: MpL2 (Macrolepiota procera) (protein)
# chain: MSTQVSSGQTYKITNVKAGTVIRLSGEDNKSIIGYPYHSGKNQQWTFNWTGKAWTLRSASSGSYLGIEGTPADGTRLVAVNDPFEWHIWRDEANENAFRIFVPFTNYNLDLSGYGDTTPGTPVQLWWTWEGLHQTWTIDRP
# Key:
# Assay in all cases: glycan array binding signal (z-score within array); higher = stronger binding
# Conditions in all cases: glycan notation: IUPAC condensed, linker removed; mutation: D22R
# [1] = target: Man(a1-2)Man(a1-3)[Man(a1-2)Man(a1-6)]Man
# Method in brief: (§1)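 Columns mapping to the same glycan were averaged after glycan names were converted to IUPAC-condensed notation. The data come from 3228 arrays in the Consortium for Functional Glycomics database, limited to those with an available protein sequence. Binding is reported as a within-array Z-score averaged across arrays of one protein sequence and across linkers.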
# [2] = target: Man(a1-2)Man(a1-3)[Man(a1-2)Man(a1-6)]Man(a1-6)[Man(a1-2)Man(a1-2)Man(a1-3)]Man
# Method in brief: as §1
# [3] = target: Man(a1-2)Man(a1-3)[Man(a1-2)Man(a1-6)]Man(a1-6)[Man(a1-2)Man(a1-2)Man(a1-3)]Man(b1-4)GlcNAc(b1-4)GlcNAc
# Method in brief: as §1
# [4] = target: Man(a1-2)Man(a1-3)[Man(a1-6)]Man(a1-6)[Man(a1-2)Man(a1-3)]Man(b1-4)GlcNAc(b1-4)GlcNAc
# Method in brief: as §1
# [5] = target: Man(a1-2)Man(a1-6)[Man(a1-3)]Man(a1-6)[Man(a1-2)Man(a1-2)Man(a1-3)]Man
# Method in brief: as §1
# [6] = target: Man(a1-2)Man(a1-6)[Man(a1-3)]Man(a1-6)[Man(a1-2)Man(a1-2)Man(a1-3)]Man(b1-4)GlcNAc(b1-4)GlcNAc
# Method in brief: as §1
# Man(a1-3)[Man(a1-6)]Man = target: Man(a1-3)[Man(a1-6)]Man
# Method in brief: as §1
# [7] = target: Man(a1-3)[Man(a1-6)]Man(a1-6)[Man(a1-2)Man(a1-3)]Man(b1-4)GlcNAc(b1-4)GlcNAc
# Method in brief: as §1
# [8] = target: Man(a1-3)[Man(a1-6)]Man(a1-6)[Man(a1-3)]Man
# Method in brief: as §1
# [9] = target: Man(a1-3)[Man(a1-6)]Man(a1-6)[Man(a1-3)]Man(b1-4)GlcNAc(b1-4)GlcNAc
# Method in brief: as §1
# [10] = target: Man(a1-3)[Man(a1-6)]Man(b1-4)GlcNAc(b1-4)GlcNAc
# Method in brief: as §1
# [11] = target: Man(a1-3)[Man(a1-6)]Man(b1-4)GlcNAc(b1-4)[Fuc(a1-6)]GlcNAc
# Method in brief: as §1
# Man(a1-6)Man = target: Man(a1-6)Man
# Method in brief: as §1
# Man(b1-4)GlcNAc = target: Man(b1-4)GlcNAc
# Method in brief: as §1
# MurNAc(b1-4)GlcNAc = target: MurNAc(b1-4)GlcNAc
# Method in brief: as §1
# Neu5Ac(a2-3)Gal = target: Neu5Ac(a2-3)Gal
# Method in brief: as §1
# [12] = target: Neu5Ac(a2-3)Gal(b1-3)GalNAc
# Method in brief: as §1
# [13] = target: Neu5Ac(a2-3)Gal(b1-3)GalNAc(b1-3)Gal(a1-4)Gal(b1-4)Glc
# Method in brief: as §1
# [14] = target: Neu5Ac(a2-3)Gal(b1-3)GalNAc(b1-4)Gal(b1-4)Glc
# Method in brief: as §1
# [15] = target: Neu5Ac(a2-3)Gal(b1-3)GalNAc(b1-4)[Neu5Ac(a2-3)]Gal(b1-4)Glc
# Method in brief: as §1
# [16] = target: Neu5Ac(a2-3)Gal(b1-3)GalNAc(b1-4)[Neu5Ac(a2-8)Neu5Ac(a2-3)]Gal(b1-4)Glc
# Method in brief: as §1
# [17] = target: Neu5Ac(a2-3)Gal(b1-3)GalNAc6S
# Method in brief: as §1
# [18] = target: Neu5Ac(a2-3)Gal(b1-3)GlcNAc
# Method in brief: as §1
# [19] = target: Neu5Ac(a2-3)Gal(b1-3)GlcNAc(b1-2)Man
# Method in brief: as §1
# [20] = target: Neu5Ac(a2-3)Gal(b1-3)GlcNAc(b1-2)Man(a1-3)[GlcNAc(b1-4)][Neu5Ac(a2-3)Gal(b1-3)GlcNAc(b1-2)Man(a1-6)]Man(b1-4)GlcNAc(b1-4)GlcNAc
# Method in brief: as §1
# [21] = target: Neu5Ac(a2-3)Gal(b1-3)GlcNAc(b1-2)Man(a1-3)[Neu5Ac(a2-3)Gal(b1-3)GlcNAc(b1-2)Man(a1-6)]Man(b1-4)GlcNAc(b1-4)GlcNAc
# Method in brief: as §1
# [22] = target: Neu5Ac(a2-3)Gal(b1-3)GlcNAc(b1-2)[Neu5Ac(a2-3)Gal(b1-3)GlcNAc(b1-4)]Man(a1-6)[Neu5Ac(a2-3)Gal(b1-3)GlcNAc(b1-2)Man(a1-3)]Man(b1-4)GlcNAc(b1-4)GlcNAc
# Method in brief: as §1
# [23] = target: Neu5Ac(a2-3)Gal(b1-3)GlcNAc(b1-3)Gal(b1-3)GlcNAc
# Method in brief: as §1
# [24] = target: Neu5Ac(a2-3)Gal(b1-3)GlcNAc(b1-3)Gal(b1-4)GlcNAc
# Method in brief: as §1
# [25] = target: Neu5Ac(a2-3)Gal(b1-3)GlcNAc(b1-3)GalNAc
# Method in brief: as §1
# [26] = target: Neu5Ac(a2-3)Gal(b1-3)GlcNAc(b1-6)GalNAc
# Method in brief: as §1
# [27] = target: Neu5Ac(a2-3)Gal(b1-3)GlcNAc6S
# Method in brief: as §1
# [28] = target: Neu5Ac(a2-3)Gal(b1-3)[Fuc(a1-4)]GlcNAc
# Method in brief: as §1
# [29] = target: Neu5Ac(a2-3)Gal(b1-3)[Fuc(a1-4)]GlcNAc(b1-3)Gal(b1-3)[Fuc(a1-4)]GlcNAc
# Method in brief: as §1
# [30] = target: Neu5Ac(a2-3)Gal(b1-3)[Fuc(a1-4)]GlcNAc(b1-3)Gal(b1-4)[Fuc(a1-3)]GlcNAc
# Method in brief: as §1
# [31] = target: Neu5Ac(a2-3)Gal(b1-3)[GlcNAc(b1-6)]GalNAc
# Method in brief: as §1
# [32] = target: Neu5Ac(a2-3)Gal(b1-3)[Neu5Ac(a2-6)]GalNAc
# Method in brief: as §1
# [33] = target: Neu5Ac(a2-3)Gal(b1-3)[Neu5Ac(a2-6)]GlcNAc(b1-3)[Fuc(a1-3)[Gal(b1-4)]GlcNAc(b1-6)]Gal(b1-4)Glc
# Method in brief: as §1
binder,measurement,setting,value
B1,glycan array binding signal (z-score),[1],-0.713
same,glycan array binding signal (z-score),[2],0.225
same,glycan array binding signal (z-score),[3],0.471
same,glycan array binding signal (z-score),[4],-0.437
same,glycan array binding signal (z-score),[5],-0.588
same,glycan array binding signal (z-score),[6],-0.086
same,glycan array binding signal (z-score),Man(a1-3)[Man(a1-6)]Man,0.027
same,glycan array binding signal (z-score),[7],1.8
same,glycan array binding signal (z-score),[8],0.103
same,glycan array binding signal (z-score),[9],-0.255
same,glycan array binding signal (z-score),[10],-0.093
same,glycan array binding signal (z-score),[11],0.191
same,glycan array binding signal (z-score),Man(a1-6)Man,-0.378
same,glycan array binding signal (z-score),Man(b1-4)GlcNAc,-0.024
same,glycan array binding signal (z-score),MurNAc(b1-4)GlcNAc,-0.061
same,glycan array binding signal (z-score),Neu5Ac(a2-3)Gal,-0.554
same,glycan array binding signal (z-score),[12],0.304
same,glycan array binding signal (z-score),[13],0.052
same,glycan array binding signal (z-score),[14],-0.568
same,glycan array binding signal (z-score),[15],-0.197
same,glycan array binding signal (z-score),[16],-1.47
same,glycan array binding signal (z-score),[17],-0.234
same,glycan array binding signal (z-score),[18],0.018
same,glycan array binding signal (z-score),[19],-0.87
same,glycan array binding signal (z-score),[20],0.519
same,glycan array binding signal (z-score),[21],1.78
same,glycan array binding signal (z-score),[22],-0.367
same,glycan array binding signal (z-score),[23],-0.798
same,glycan array binding signal (z-score),[24],-0.228
same,glycan array binding signal (z-score),[25],-0.308
same,glycan array binding signal (z-score),[26],-0.086
same,glycan array binding signal (z-score),[27],0.313
same,glycan array binding signal (z-score),[28],-0.119
same,glycan array binding signal (z-score),[29],-0.199
same,glycan array binding signal (z-score),[30],0.382
same,glycan array binding signal (z-score),[31],-0.262
same,glycan array binding signal (z-score),[32],-0.232
same,glycan array binding signal (z-score),[33],0.292
